The other results are listed elsewhere or left out. The energies were worked out here from pooled read counts, against the library average; single values are noisy.
Molecular target: T1, Pho4 (S. cerevisiae) (UniProt P07270)
T1 sequence: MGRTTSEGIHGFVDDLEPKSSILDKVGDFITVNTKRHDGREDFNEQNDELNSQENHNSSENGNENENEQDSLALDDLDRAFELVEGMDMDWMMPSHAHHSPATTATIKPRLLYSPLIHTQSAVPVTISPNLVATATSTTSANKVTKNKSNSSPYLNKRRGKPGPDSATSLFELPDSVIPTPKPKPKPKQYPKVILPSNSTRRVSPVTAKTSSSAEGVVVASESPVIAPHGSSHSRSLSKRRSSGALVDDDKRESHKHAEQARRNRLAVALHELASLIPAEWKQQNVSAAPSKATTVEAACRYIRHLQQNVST
Experiment: relative binding free energy (BET-seq); higher = weaker binding
Settings: reference: library average

| Sequence | relative binding free energy [kcal/mol] |
| --- | --- |
| CTTATCACGTGTTATG | 0.1 |
| ATGGTCACGTGTATTG | -0.01 |
| TTTTTCACGTGTCATT | 0.27 |
| TTTGTCACGTGGTAAC | -0.01 |
| TCGAGCACGTGTGATG | -0.05 |
| TGGCTCACGTGGTAGA | 0.28 |
| TAAAGCACGTGATTGT | -0.03 |
| AATGACACGTGTAGGG | 0 |
| ATGGTCACGTGTAACG | 0.1 |
| CGATGCACGTGGGTTC | 0.01 |
| GCGGGCACGTGGGGTA | -0.2 |
| AAACTCACGTGTGTGG | 0.29 |
| TGGCGCACGTGGCAAG | -0.11 |
| GTGAGCACGTGGCTGT | -0.12 |
| ATAGTCACGTGTTAAA | 0.11 |
| GCTTACACGTGGAGTT | 0.18 |
| GGAATCACGTGTTGTT | 0.2 |
| TCGTGCACGTGGTGTT | -0.15 |
| GGATGCACGTGTTCAG | 0 |
| ACAATCACGTGGGGTG | -0.09 |
| TTATTCACGTGCCGGG | 0.23 |
| CTTTACACGTGCTTTT | -0.02 |
| GGGTGCACGTGCCTTG | -0.09 |
| AATAGCACGTGGAGGT | -0.16 |
| TTCATCACGTGCGTTT | 0.21 |

| Sequence | relative binding free energy [kcal/mol] |
| --- | --- |
| TAGAGCACGTGTGGGC | -0.13 |
| TTATGCACGTGTCGCT | 0.01 |
| GGTAACACGTGGTAAG | -0.04 |
| AATTTCACGTGAAAAT | 0.4 |
| ATGCGCACGTGCGTGG | -0.24 |
| TATTTCACGTGCTGCG | 0.22 |
| TGGTACACGTGTATTC | 0.03 |
| GGGCTCACGTGTCGTG | 0.27 |
| CGAGACACGTGGAGTG | 0.02 |
| TGAGTCACGTGTTTAA | 0.1 |
| CGTGTCACGTGGTTCG | -0.12 |
| TGTGACACGTGTCGGG | -0.02 |
| GTGGTCACGTGCGAGC | 0.28 |
| TATTGCACGTGTAGGA | -0.01 |
| TTGGACACGTGGGATG | -0.02 |
| TGCTGCACGTGTGTGT | -0.06 |
| GTTGGCACGTGGTTTT | 0.02 |
| TTCGTCACGTGCTGTA | 0.04 |
| GTTTTCACGTGGGTGC | 0.28 |
| TGAGTCACGTGGTCTA | 0 |
| ATGTTCACGTGTGCGG | 0.26 |
| TTGTGCACGTGCGACT | 0.03 |
| GACGGCACGTGGGCTG | -0.21 |
| ATATTCACGTGCGGGC | 0.26 |
| TATGGCACGTGCGGGC | -0.07 |

| Sequence | relative binding free energy [kcal/mol] |
| --- | --- |
| CGATGCACGTGTGTTG | 0.04 |
| TGGTCCACGTGCTTGG | -0.12 |
| TCGTTCACGTGAATGG | 0.4 |
| GTTTACACGTGACTTT | 0.2 |
| TGTCCCACGTGTGTGG | 0.02 |
| GGGATCACGTGAAGTA | 0.41 |
| TAGATCACGTGGATGG | 0.12 |
| GATGGCACGTGGGGAC | -0.05 |
| TTAGTCACGTGAGGTA | 0.36 |
| ATTCACACGTGTGTAT | 0.16 |
| TTTCTCACGTGGGGTT | 0.11 |
| TGTGCCACGTGGGTGG | -0.17 |
| TGTGCCACGTGGTTCT | -0.17 |
| CTGGTCACGTGGGATA | 0.06 |
| GTGTTCACGTGGTACA | 0.22 |
| TACGTCACGTGTTGAG | 0.12 |
| ATGTGCACGTGCGTAA | -0.08 |
| ATATTCACGTGGGACT | 0.11 |
| AAATCCACGTGGGGGG | 0 |
| TTGGTCACGTGTAAGA | 0.08 |
| TGAAGCACGTGTCTGG | 0 |
| ACTTGCACGTGGTTAT | -0.17 |
| GGTAGCACGTGGTTTC | -0.14 |

Reference: the BET-seq Pho4 binding data (Le et al. 2018)
